The supplement of paper PMC11417369
± gives the standard deviation of the averaged measurements. This is one part of the list.

Test system: PfAP2-LT AP2 domain (GST-tagged)
Experiment: gcPBM binding intensity (ln(normalized median fluorescence intensity)); higher = stronger DNA binding
In short: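 Binding intensity is defined as the maximum Masliner-normalised natural-log median intensity across replicate spots for either probe orientation. It was measured on an Agilent 4 × 180k array of primer-extended double-stranded 36-bp intergenic genomic probes and negative controls, to which GST-tagged P. falciparum DNA-binding domains made in E. coli were applied for 1 h in 1× PBS with 1% milk, 0.2 mg/ml BSA, 0.5% salmon testes DNA and 0.03% Triton X-100. Detection was by Alexa488 anti-GST antibody and scanning at 488 nm.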

Sequence | gcPBM binding intensity (ln)
GAGAGAGAAATAAAAAGTACATACATATATATACAT [XGTACX_site2267] | 8.84 ± 0.58
AAAAAAAACAGACACATACACACAAAAATGTTATAA [CACACA_site82] | 9.24 ± 0.52
ACCATTTTTATGTATAAACACACGTACCCGCACTAA [CACACA_site1604] | 9.04 ± 0.46
TGGAGATTTTTAAAGACACACAGGTAAGAATAATAA [CACACA_site1582] | 8.77 ± 0.47
TTATACCTATATTTAACACACATTTGATAAAGTGCC [CACACA_site6732] | 8.85 ± 0.47
AAAAAATTTGTTTATTGTACAGAAAGAATTATTATA [XGTACX_site6549] | 8.34 ± 0.47
TTGTAGGTAAATATGTGTACGCATTATTATTCTTAA [XGTACX_site216] | 8.7 ± 0.45
AATATAAACACAAACACACACATATAGATTTATATA [CACACA_site6263] | 9.53 ± 0.35
CACAATGGTTTATATACACACTGTTGCAAATTCTTC [CACACA_site5659] | 8.97 ± 0.35
AATATATAAATTGACACACACATATATACCTATATA [CACACA_site4803] | 9.35 ± 0.29
ACATATATATATATATATATATATATATATAGATAG [CACACA_negctrl_site783] | 9.49 ± 0.28
AAAACTAAATGTTATTCGCACACGGAATTTATTTAA [CACACA_site9221] | 8.94 ± 0.38
ACAAAAAAATATTTATGTACTTATTATATTTATAAT [XGTACX_site2059] | 8.49 ± 0.54
CTTTTTACTTAATACACACACACACTAAAAAAAAAA [CACACA_site6574] | 9.39 ± 0.16
ATAAAGAAATTACACACATGCAATGAAAAAAAAAAA [TGCATGCA_site406] | 9.12 ± 0.46
ATATATATTATATATGCATGCCAAATCTTTATAAAC [TGCATGCA_site1042] | 8.98 ± 0.44
ATATGTATAAAAATCCGTACATAAGTGTGCGTATAT [XGTACX_site4376] | 8.98 ± 0.36
ATGTTTGAGCCTAAGGTGCATATAAAAATATATGTG [GTGCAC_site9690] | 8.74 ± 0.49
ATAAATAATATGTAAACACACAAAAAATAAAAATGA [CACACA_site1178] | 9.17 ± 0.51
TACTAAGAAGTATTTACACACCAACAAGGCGAAAAA [CACACA_site2944] | 8.88 ± 0.44
ATATTTTGTTATGAAACACACACATATATATATATA [CACACA_site9216] | 9.305 ± 0.0071
AAAAAAAAAAGAAATTGTACTTTTTGTTTAATAATT [XGTACX_site4681] | 8.26 ± 0.52

Sequence | gcPBM binding intensity (ln)
TTGAGCCTACAAAAGGGTACACATTCAATTTATTTT [XGTACX_site6570] | 8.76 ± 0.48
ATTCCAGAAATATATTAACAAGGAAAATATAAAAAT [CACACA_negctrl_site343] | 8.65 ± 0.48
ATAAAATGATGTATCTGTGTATGTTTATTTTGTTTT [XGTACX_negctrl_site367] | 8.93 ± 0.44
TATTTCAAACTGTTCTCACACACGAAATTAGAAATG [CACACA_site611] | 8.82 ± 0.34
ATTATATACAAATAAAGTACATAAACAAATTCAGAA [XGTACX_site1187] | 8.89 ± 0.47
TCAAAATATCCAAAAGAATAAAGAAAAAAAAAAAGA [CACACA_negctrl_site1377] | 8.6 ± 0.39
TTTTTATAAATAATAAGGCGTATGAAAATAAAATAA [TGCATGCA_negctrl_site421] | 8.41 ± 0.4
TCAAATTTAATCATAACACACATTCACATATGAATT [CACACA_site3199] | 8.81 ± 0.4
ATATAACATTGTTTTGCATGTAAATATTCAATTTTT [TGCATGCA_site758] | 8.62 ± 0.41
ATATAATGAAGTGAATGTACATATAAAATGTAAAAA [XGTACX_site8052] | 9.12 ± 0.59
AAAAAAAAAAAACACACACACAAATACAAATACATA [CACACA_site415] | 9.99 ± 0.38
TAGTATAATATATATTGTACGTTTTAATTGTTTATA [XGTACX_site2731] | 8.61 ± 0.45
GAAACGTTTTTTCAGTGTACATTTTACCGATTTGTA [XGTACX_site8249] | 8.88 ± 0.42
TAAAGCAACTGAAACACACAAATTTTTTTTTTTTTT [CACACA_site7499] | 8.77 ± 0.39
AAACTGAAAAAAATATGTACATATTTATATCTTATA [XGTACX_site3011] | 8.61 ± 0.46
ATTGTATAAAAATGTACATGCAATAAATTTAGTTCT [TGCATGCA_site675] | 8.77 ± 0.42
TATATAAGAATATATACACACATATCTGTATTTATA [CACACA_site5231] | 8.88 ± 0.39
AAAAAAACAGAAAACACACAAATTATCTTATAATTA [CACACA_site6282] | 8.75 ± 0.52
TTATTAACGGAACTCTGTACTTAAAAAATTTTAGAA [XGTACX_site8787] | 8.21 ± 0.52
ATTGTTTCATTAAAATGTACATAAATTGTGTATAAT [XGTACX_site5341] | 8.65 ± 0.41
GAGTTTATATTTTAAGCATGCATATGTTATTATTAT [TGCATGCA_site1049] | 9.03 ± 0.41
TATATCAAAAACGAGACATGCATGCCGTTCATTTTG [TGCATGCA_site211] | 8.82 ± 0.38

Sequence | gcPBM binding intensity (ln)
TCTTTTTTGAAGCATTTTGTTTTTTAATAAGTAAAA [TGCATGCA_negctrl_site247] | 8.18 ± 0.35
AATAAAATAAAAAAAAATAAAAAAAAAATAAAAAAT [XGTACX_negctrl_site245] | 8.77 ± 0.67
TATATATATATTTAATGTACATGTTTATTTTATCAT [XGTACX_site499] | 8.9 ± 0.42
TTTATAAAGGGAAAGGTGCAAAAGGTGAAAGTTTTA | 8.77 ± 0.59
TATTTTTCTTTTTAAGTGCATGGTTGTATAAAATTT [GTGCAC_site9480] | 8.59 ± 0.4
CACAGACACCCATACACACACATACCCATATATATA [CACACA_site5023] | 9.56 ± 0.34
ATTTTATTTAAATACACACACATATATATATTATAT [CACACA_site4607] | 9.21 ± 0.31
AATTATCAGGAATGATGTACTGAAATAAAAAAAAAA [XGTACX_site3280] | 8.62 ± 0.47
CTACATATGTATAATATGCACACGTCATTTTCCCCT [CACACA_site2107] | 9.24 ± 0.47
ACACAAAAATGAAAAATGAAAAGGGTAATATATATA [CACACA_negctrl_site1490] | 8.97 ± 0.52
AAAAAAAAAAAAAAAGCACACATCATATTTTAATTC [CACACA_site9109] | 8.87 ± 0.28
AGTATTATTTACTGCGCATGCTATTTATATATATTA [TGCATGCA_site876] | 9.07 ± 0.38
ACCATATATTAAAAAGTGCATTAAATATATAAATAT [GTGCAC_site9443] | 8.71 ± 0.52
AATAGAAATTATATAAACATAAATGAATAAATAAAT [CACACA_negctrl_site1817] | 8.86 ± 0.46
AATTAAATGGATAAATGTACATATGTGAATATATTT [XGTACX_site84] | 8.98 ± 0.54
TTACACAAGGATAAAAACATATGTATGATTATATAT [CACACA_negctrl_site654] | 8.89 ± 0.47
AAAATTTGAAAAAGGGGTACTTAATAAAAGTTTCAT [XGTACX_site932] | 8.52 ± 0.45
ATACTGTATAGTCGCACACAAAAATATAAAATATTT [CACACA_site6004] | 9.28 ± 0.34
ATAATTAACAAATACACACACACACCCAGACAAAAA [CACACA_site4445] | 10.2
AAAATATTAAATATGTGTACATATAATAGTTCAATG [XGTACX_site5957] | 8.79 ± 0.46
AAACAAATAAAAATATGTACACATTTTTTCATTATG [XGTACX_site5449] | 8.71 ± 0.43
TTAAAAGAAAATAGGTGTACACATAATATATACATA [XGTACX_site7697] | 8.96 ± 0.67

Sequence | gcPBM binding intensity (ln)
AATATGTCTTAAAAAAGTACATAAATTTTAACTTCA [XGTACX_site6670] | 8.35 ± 0.3
TTTTTAATCATAATATGTACATATAAAAATGGTTTG [XGTACX_site3996] | 8.54 ± 0.41
TGTGTATATATAAATACACACCAAATGTTAATATAT [CACACA_site8501] | 8.95 ± 0.4
AACAATTAGAATAACGCATGCATTTATAATATAGAA [TGCATGCA_site595] | 9.02 ± 0.47
TTTTTATTTTTTTATGCATGTGATGAAACGTGCCTA [TGCATGCA_site141] | 8.89 ± 0.51
TAATAAATCAAATGCACACACACAAAAAAAAAAAAA [CACACA_site161] | 9.61 ± 0.38
AAAAGGAGCAAATACAAAAAAATGAACAAAAAAAAA [CACACA_negctrl_site716] | 8.8 ± 0.61
TTTTTCTTTGAATAAATACACACGAGAAATGAAAGT [CACACA_site1688] | 8.7 ± 0.38
CATACCTATAGACACACACACACACGCACGCACAAA [CACACA_site6374] | 10 ± 0.18
TTTTGTAATGCTTTTTTTTTTTTTTTTTTTTTTTTT [CACACA_negctrl_site932] | 8.64 ± 0.35
TCATATATATATATATGTACATATTTATGTATGTAT [XGTACX_site6291] | 9.01 ± 0.3
ACATAGATCATAGGTTGTACGAAGGTATCCTTTATT [XGTACX_site694] | 8.84 ± 0.38
ACTTTTTGAATGTTTGCACACAAATCTCATAATTTT [CACACA_site358] | 9.23 ± 0.4
AAAAAAAAAAAAAAATGTACTTTTATTATTAATATA [XGTACX_site6357] | 8.33 ± 0.38
AGTTCATATTTAAAAAGTACATATTTAAAAACTTCT [XGTACX_site4882] | 8.43 ± 0.4
TTTGAACTTTTATATACACACATTATTATAGTATAG [CACACA_site6851] | 8.87 ± 0.41
ATGCATATATTTATGTGTACATATATTTGTAGGGGG [XGTACX_site6063] | 10.2 ± 0.36
ATATCGTTTTTAAATTGTACATTCACTATAGAATAA [XGTACX_site6442] | 8.57 ± 0.49
TTTATTTTTCATTGGGGTACACAAGTTTATTTTTGA [XGTACX_site4262] | 8.71 ± 0.41
TTCTTTGTTTTTTTTTTTTTTTTAAAAGATAATATT [XGTACX_negctrl_site381] | 8.28 ± 0.52
ATATATTTATTTTGTGCACACAACGCAAACCTTTTA [CACACA_site3508] | 9.28 ± 0.49
TATATCGCCTTCAAAAGTACTCATATAAAAAAAAAA [XGTACX_site7123] | 8.21 ± 0.42
